#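 Exposure lasted 48 hours, with cells grown in 96-well plates and compounds tested at five concentrations. GI50 marks 50% less growth.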 Calls of active or inactive are those of the source. Cut-off read from the data, not from the text of the source: active = GI50 up to about 1.1 µM and inactive = higher.
# Columns and labels:
# Test in all cases: growth of human tumour cells (NCI), 48 h
# SK-MEL-5 = tested on: SK-MEL-5
# RXF 393 = tested on: RXF 393
# PC-3 = tested on: PC-3
# ACHN = tested on: ACHN
# MOLT-4 = tested on: MOLT-4
# NCI-H522 = tested on: NCI-H522
# CCRF-CEM = tested on: CCRF-CEM
# OVCAR-5 = tested on: OVCAR-5
# Hs-578T = tested on: Hs-578T
# UO-31 = tested on: UO-31
# NCI-H23 = tested on: NCI-H23
# EKVX = tested on: EKVX
# HOP-92 = tested on: HOP-92
# IGROV-1 = tested on: IGROV-1
# SK-MEL-28 = tested on: SK-MEL-28
# UACC-62 = tested on: UACC-62
# MCF7 = tested on: MCF7
# SK-MEL-2 = tested on: SK-MEL-2
# SR = tested on: SR
# OVCAR-4 = tested on: OVCAR-4
# HL-60 = tested on: HL-60
# SF-295 = tested on: SF-295
# SW-620 = tested on: SW-620
# A549 = tested on: A549
# MDA-MB-435 = tested on: MDA-MB-435
# NCI/ADR-RES = tested on: NCI/ADR-RES
# BT-549 = tested on: BT-549
# HT-29 = tested on: HT-29
# KM12 = tested on: KM12
# SF-268 = tested on: SF-268
# SK-OV-3 = tested on: SK-OV-3
# U-251 = tested on: U-251
# RPMI-8226 = tested on: RPMI-8226
# NCI-H226 = tested on: NCI-H226
# OVCAR-3 = tested on: OVCAR-3
# SF-539 = tested on: SF-539
# HCC 2998 = tested on: HCC 2998
# SNB-19 = tested on: SNB-19
# SNB-75 = tested on: SNB-75
# NCI-H460 = tested on: NCI-H460
# HOP-62 = tested on: HOP-62
# OVCAR-8 = tested on: OVCAR-8
# TK-10 = tested on: TK-10
# K562 = tested on: K562
# UACC-257 = tested on: UACC-257
# HCT-15 = tested on: HCT-15
# M14 = tested on: M14
smiles,measurement,setting,value
O=C(/C=C/c1ccccc1)Nc1ccccc1F [N-(2-FLUOROPHENYL)CINNAMAMIDE],GI50,SK-MEL-5,inactive: 64 µM
same,GI50,RXF 393,inactive: > 100 µM
same,GI50,PC-3,inactive: 45.9 µM
same,GI50,ACHN,inactive: > 100 µM
same,GI50,MOLT-4,inactive: 15.2 µM
same,GI50,NCI-H522,inactive: 72.1 µM
same,GI50,CCRF-CEM,inactive: 49.5 µM
same,GI50,OVCAR-5,inactive: > 100 µM
same,GI50,Hs-578T,inactive: > 100 µM
same,GI50,UO-31,inactive: 68.4 µM
same,GI50,NCI-H23,inactive: > 100 µM
same,GI50,EKVX,inactive: > 100 µM
same,GI50,HOP-92,inactive: > 100 µM
same,GI50,IGROV-1,inactive: > 100 µM
same,GI50,SK-MEL-28,inactive: > 100 µM
same,GI50,UACC-62,inactive: 47.9 µM
same,GI50,MCF7,inactive: 81.5 µM
same,GI50,SK-MEL-2,inactive: > 100 µM
same,GI50,SR,inactive: 32.1 µM
same,GI50,OVCAR-4,inactive: 37.6 µM
same,GI50,HL-60,inactive: 19.8 µM
same,GI50,SF-295,inactive: 74.1 µM
same,GI50,SW-620,inactive: > 100 µM
same,GI50,A549,inactive: > 100 µM
same,GI50,MDA-MB-435,inactive: > 100 µM
same,GI50,NCI/ADR-RES,inactive: 55.1 µM
same,GI50,BT-549,inactive: > 100 µM
same,GI50,HT-29,inactive: 46 µM
same,GI50,KM12,inactive: 59.4 µM
same,GI50,SF-268,inactive: > 100 µM
same,GI50,SK-OV-3,inactive: > 100 µM
same,GI50,U-251,inactive: > 100 µM
same,GI50,RPMI-8226,inactive: 30.4 µM
same,GI50,NCI-H226,inactive: 88.1 µM
same,GI50,OVCAR-3,inactive: > 100 µM
same,GI50,SF-539,inactive: > 100 µM
same,GI50,HCC 2998,inactive: 97.1 µM
same,GI50,SNB-19,inactive: 62.2 µM
same,GI50,SNB-75,inactive: > 100 µM
same,GI50,NCI-H460,inactive: > 100 µM
same,GI50,HOP-62,inactive: > 100 µM
same,GI50,OVCAR-8,inactive: > 100 µM
same,GI50,TK-10,inactive: > 100 µM
same,GI50,K562,inactive: 19.2 µM
same,GI50,UACC-257,inactive: > 100 µM
same,GI50,HCT-15,80.2 µM
same,GI50,M14,inactive: > 100 µM

# Source: ChEMBL document CHEMBL1201862, “PubChem BioAssay data set” (2004)
